# Measured values from PMC4336329 (PLoS ONE, 2015).
# The whole screen tested about 310,000 compounds, of which about 14,000 (4.5%) showed an effect of 50% or more. Effects have a minus sign here. Some of the results follow.
# Target: human ether-à-go-go-related gene (hERG) potassium channel (human, UniProt Q12809)
# Assay: primary screen, population patch clamp on CHO cells stably expressing hERG
# 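Note: peak tail current of the secondary pulse compared with the same well before compound.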
# Sequence of human ether-à-go-go-related gene (hERG) potassium channel (Q12809 whole entry, looked up): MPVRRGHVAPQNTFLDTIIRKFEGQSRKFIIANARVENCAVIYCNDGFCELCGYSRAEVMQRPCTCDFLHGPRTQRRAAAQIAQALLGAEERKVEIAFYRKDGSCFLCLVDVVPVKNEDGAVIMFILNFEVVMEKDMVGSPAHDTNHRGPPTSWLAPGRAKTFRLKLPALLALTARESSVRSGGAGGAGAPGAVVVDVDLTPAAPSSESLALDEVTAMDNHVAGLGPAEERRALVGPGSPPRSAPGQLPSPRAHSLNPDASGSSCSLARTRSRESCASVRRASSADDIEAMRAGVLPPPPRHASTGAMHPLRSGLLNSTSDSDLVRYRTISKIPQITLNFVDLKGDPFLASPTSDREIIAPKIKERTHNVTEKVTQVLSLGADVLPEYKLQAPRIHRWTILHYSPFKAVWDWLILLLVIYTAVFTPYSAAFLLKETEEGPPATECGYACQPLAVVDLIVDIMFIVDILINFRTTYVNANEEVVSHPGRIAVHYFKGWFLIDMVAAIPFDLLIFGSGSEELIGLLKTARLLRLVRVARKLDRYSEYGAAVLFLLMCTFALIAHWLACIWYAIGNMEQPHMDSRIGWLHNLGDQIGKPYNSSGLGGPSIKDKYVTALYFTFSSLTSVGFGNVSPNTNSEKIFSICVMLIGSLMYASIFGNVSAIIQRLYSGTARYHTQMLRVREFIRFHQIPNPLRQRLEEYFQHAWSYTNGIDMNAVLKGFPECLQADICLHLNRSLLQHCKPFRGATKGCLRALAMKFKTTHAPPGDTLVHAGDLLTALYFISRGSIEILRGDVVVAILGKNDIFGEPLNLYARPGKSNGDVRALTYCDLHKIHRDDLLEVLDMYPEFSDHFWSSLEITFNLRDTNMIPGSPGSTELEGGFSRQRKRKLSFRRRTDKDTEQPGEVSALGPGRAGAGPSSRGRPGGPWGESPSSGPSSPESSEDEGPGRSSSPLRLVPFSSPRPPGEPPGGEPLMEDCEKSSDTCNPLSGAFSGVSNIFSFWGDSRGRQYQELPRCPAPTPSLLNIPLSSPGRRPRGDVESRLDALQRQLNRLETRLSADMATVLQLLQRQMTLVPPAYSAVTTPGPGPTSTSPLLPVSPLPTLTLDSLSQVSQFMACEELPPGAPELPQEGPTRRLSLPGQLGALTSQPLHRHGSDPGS
row,Compound,"hERG current change (%, negative = inhibition) at 10uM"
1,CCC(=O)OCn1nnc2ccccc2c1=O,15.3%
2,COc1cc2c(cc1OC)C(c1ccc(OC)c(OC)c1OC)CC(=O)N2 (stereo not drawn),22.6%
3,CCOc1ncccc1C(=O)OCC(=O)Nc1ccc(C(N)=O)cc1,12.6%
4,COc1ccc(C2C(C(=O)N3CCN(c4ccccc4)CC3)c3ccccc3C(=O)N2C)cc1 (stereo not drawn),-31.5%
5,CCCN(CCC)CC(C)(C)NS(=O)(=O)c1ccc(Cl)cc1,-17.1%
6,O=C(NCCc1ccccc1)C1CC(=O)N(C2CCCCC2)C1 (stereo not drawn),19.7%
7,O=c1[nH]c(=S)[nH]c2c1C(c1cc([N+](=O)[O-])c(N3CCOCC3)cc1N1CCOCC1)O2 (stereo not drawn),22%
8,Cc1cccc(C2c3[nH]c4ccccc4c3CCN2C(=O)c2ccc(=O)[nH]c2)n1 (stereo not drawn),34.3%
9,Cc1cc(C)n2nc(CC(=O)NC3CCCCCC3)nc2n1,5.03%
10,COc1ccccc1-c1nnc(SCC(=O)N2CCCC2)o1,2.94%
11,Cc1ccc(S(=O)(=O)NCCC(c2ccccc2)c2ccccc2)cc1C(=O)O,-0.741%
12,COc1ccc(Oc2ccc(N/C=C3/CCCC3=O)cc2)cc1,-6.26%
13,O=C(CN1C(=O)C(=O)N(C2CCCC2)C1=O)Nc1ccc(N2CCOCC2)cc1,23.8%
14,CC(C)c1cc(CNC(=O)CCc2nnc(CCCc3ccccc3)o2)on1,0.291%
15,N#CCC(=O)Nc1ccc(C(=O)OCC(=O)N(Cc2ccccc2)C2CCS(=O)(=O)C2)cc1 (stereo not drawn),18.6%
16,Cc1cc(C(=O)N2CCCC(CNS(=O)(=O)c3cccs3)C2)nn1C (stereo not drawn),15.7%
17,O=C(Cn1nnc(-c2cccs2)n1)OC1CCCCC1,-0.871%
18,CCc1ccc(OCC(=O)N2CCN(c3ccccc3F)CC2)cc1,20.2%
19,O=C(COc1cccc2ccccc12)NNC(=O)c1cccs1,5.36%
20,O=C(NNC1CC(=O)N(c2ccc(Br)cc2)C1=O)c1ccccn1 (stereo not drawn),-4.01%
21,CCc1ccn2cc(-c3ccc4c(c3)OCO4)nc2c1,-13.3%
22,CCOc1ccc(NC(=S)NCCCN2CCOCC2)cc1,10.7%

row,Compound,"hERG current change (%, negative = inhibition) at 10uM"
1,CCOC(=O)N1CCC(NC(=O)C2CCC(Cn3c(=O)[nH]c4ccccc4c3=O)CC2)CC1 (stereo not drawn),-11.9%
2,COCCNC(=O)C(c1ccc(C)cc1)N(C(=O)CCC(=O)Nc1ccccn1)c1ccc(F)cc1 (stereo not drawn),-11.6%
3,Cc1cccc2cc(C#N)c(N3CCCC3)nc12,13.2%
4,CCOC(=O)C1CCN(S(=O)(=O)c2ccc3c(c2)N(C(C)=O)CCO3)CC1,-67.2%
5,CC1(C)CC(NC(=O)C2CCN(S(=O)(=O)c3ccc(F)cc3)CC2)CC(C)(C)N1,14%
6,Cc1ccnc(NC(=O)CCC(=O)N(CC(=O)NC(C)(C)C)c2ccc(F)c(Cl)c2)c1,12.4%
7,O=Cc1cn(CC(=O)N2CCCc3ccccc32)c2ccccc12,15%
8,COc1ccc(Cc2noc(CN3CCN(C4CCc5ccccc5C4)CC3)n2)cc1OC (stereo not drawn),-68.8%
9,COc1ccc(-n2nc(C(=O)NCC(=O)N3CCCCCC3)c3ccccc3c2=O)cc1Cl,-16.9%
10,Cc1ccc(C(=O)N/C(=C\c2ccco2)C(=O)NCCN2CCOCC2)cc1,-23.2%
11,CCC(C(=O)NCCN1CCN(C)CC1)n1c(C)c2cnn(-c3ccccc3)c(=O)c2c1C (stereo not drawn),11.1%
12,CCOc1cc(NC(=O)C2CCCO2)c(OCC)cc1NC(C)=O (stereo not drawn),17.1%
13,CCOC(=O)c1sc(N(Cc2ccccc2)C(=O)CSc2nnc(C3CC3)n2N)nc1C,-26.7%
14,N#CCn1nnc(-c2ccc3c(c2)OCO3)n1,-4.09%
15,CCCN(CC(=O)Nc1ccc(C(N)=O)cc1)CC(=O)Nc1ccc(Cl)cc1Cl,3.6%
16,CN(C)C(CNc1ccc(C(N)=O)cc1[N+](=O)[O-])c1ccccc1 (stereo not drawn),-0.959%
17,COc1ccc(CNC(=O)[C@@H](NC(=O)C2CCN(C(=O)[C@@H](N)CC(C)C)CC2)C(C)C)cc1,18.8%
18,O=C1CN(C(=O)c2ccccc2[N+](=O)[O-])C(c2ccccc2)c2cc(Br)ccc2N1 (stereo not drawn),-66.5%
19,CCOC12CC(C)(C)CC(C)(CC3=C1C(=O)CC(C)(C)C3)C2 (stereo not drawn),-43.3%
20,Cc1ccc(N(C(=O)c2cccs2)C2C=CS(=O)(=O)C2)cc1 (stereo not drawn),-24.4%
21,Cc1ccc(S(=O)(=O)N2CCN(CC(=O)N/N=C/c3ccc(Br)s3)CC2)cc1,-49%
22,Cc1nn(C(C)C(=O)c2cccc(Cl)c2)c(C)c1[N+](=O)[O-] (stereo not drawn),14%

row,Compound,"hERG current change (%, negative = inhibition) at 10uM"
1,O=C(NNC(=S)Nc1ccccc1)c1ccco1,-10.7%
2,COc1cc(NC(C)CCc2ccccc2)cc(OC)c1OC (stereo not drawn),17.1%
3,COc1ccc(CCCc2n[nH]c(=S)n2C)cc1C,12.4%
4,CCc1noc(C)c1C(=O)N(C)CC(=O)Nc1ccc(Cl)c(Cl)c1,-14.1%
5,CCn1c(SCC(=O)N2CC(C)OC(C)C2)nc2c([nH]c3ccccc32)c1=O (stereo not drawn),1.37%
6,O=C(CC[NH+]1CCCCC1)c1ccccc1.[Cl-],-4.89%
7,Cc1cc(C(=O)COc2ccccc2[N+](=O)[O-])c(C)n1-c1cccc(S(=O)(=O)N2CCOCC2)c1,-9.82%
8,Cc1ccc(S(=O)(=O)N2CCCCC2CCNC(=O)C(=O)NCCc2ccco2)cc1 (stereo not drawn),-33.1%
9,O=C(O)c1ccccc1-c1ccccc1C(=O)Nc1nc2ccccc2s1,2.46%
10,CCOc1cc(/C=C2/C(=O)ON=C2C)ccc1OCc1ccccc1F,10.6%
11,Cc1ccc(N(C)S(=O)(=O)c2cc(-c3cnc(C4CC4)o3)ccc2C)cc1,6.99%
12,CN(CC(=O)Nc1ccc(Cl)cc1)C(=O)c1cccc(S(=O)(=O)N2CCN(Cc3ccccc3)CC2)c1,2.12%
13,CCOc1ccccc1NC(=S)N1CCN(c2ccc(OC)cc2)CC1,19.3%
14,Cc1ccc(CNC(=O)C23CN(Cc4ccccc4)CC2C(c2ccc([N+](=O)[O-])cc2)=NO3)cc1 (stereo not drawn),-43.7%
15,Cc1cc(NC(=O)CSc2ncn(-c3ccccc3)n2)no1,14%
16,Cn1c(=O)cc(OCCCC(=O)N2CCC3(CC2)OCCO3)c2ccccc21,-6.45%
17,Cc1ccc(NC(=O)CNc2ccc(OC(C)C)cc2)cc1,4.51%
18,CC(C)Nc1nnc(SCC(=O)c2c[nH]c3ccccc23)s1,-4.42%
19,COC(=O)C[C@H]1c2cc(F)ccc2S(=O)(=O)N1Cc1ccccc1OC,1.77%
20,Cc1coc2cc3oc(=O)c(CC(=O)N4C[C@H]5C[C@@H](C4)c4cccc(=O)n4C5)c(C)c3cc12,-41.5%
21,C=CCn1c(-c2ccccc2)nc(=S)c2c1CCCC2,11.6%
22,CCCNC(=O)CCn1c(-c2ccc(C)cc2)cc(C(=O)OCC)c1C,-6.08%

row,Compound,"hERG current change (%, negative = inhibition) at 10uM"
1,COCCn1c(SCC(=O)NCc2ccc3c(c2)OCO3)nnc1C(C)C,17.4%
2,O=C(CSc1nnc(-c2cccc(S(=O)(=O)N3CCCCC3)c2)o1)NCCC1=CCCCC1,0.45%
3,Cc1cc(NC(=O)COc2ccc3oc4ccccc4c3c2)no1,-5.66%
4,O=C(Nc1cccc(Cl)c1)c1ccc(F)c(S(=O)(=O)NCc2ccc3c(c2)OCO3)c1,-15.1%
5,O=C(OCc1cc(Cl)ccc1OC(F)F)c1ccc([N+](=O)[O-])o1,5.86%
6,O=C(c1cc2nc(C3CC3)cc(C(F)F)n2n1)N1CCOCC1,15.2%
7,O=C(c1ccc(F)cc1)C1CCN(C(=O)c2c(F)cccc2F)CC1,-5.01%
8,Cc1cccc(OCC(=O)NC(=S)NNC(=O)c2ccncc2)c1,16.8%
9,O=C(CN(Cc1cccs1)S(=O)(=O)c1ccc(S(=O)(=O)NC2CCCCC2)cc1)Nc1ccccc1,-10.5%
10,Cc1ccccc1-n1nc(-c2ccc(N)cc2)cc1N,-9.97%
11,Cc1cccc(NS(=O)(=O)c2ccc3c(c2)oc(=O)n3C)c1C,6.2%
12,CCc1ccccc1NC(=O)NCCN1CCCCC1,0.58%
13,Cc1ccc2c(c1)c(N=O)c(O)n2Cc1ccc(Cl)cc1,-14.4%
14,CC(=O)c1cccc(NC(=O)/C(=C/c2ccco2)NC(=O)c2ccco2)c1,-18.6%
15,CCc1ccc(N(CC(=O)NC(C)C)C(=O)CCC(=O)Nc2nccs2)cc1,13.4%
16,CCc1cc(=O)oc2cc(OC(C)C(=O)O)c(Cl)cc12 (stereo not drawn),15.4%
17,COCC(=O)Nc1ccc(Br)cc1,-2.7%
18,Cc1ccccc1NS(=O)(=O)c1ccc(OCCNS(C)(=O)=O)cc1,-4.01%
19,O=C(OCC(=O)N1CCCC1=O)c1cc(Cl)ccc1O,-17.4%
20,CN1C2CCC1CC(NS(=O)(=O)c1cccc(C(F)(F)F)c1)C2 (stereo not drawn),12.3%
21,CC1(NC(=O)CC[N+](C)(C)CCO)CS(=O)(=O)CC1S(=O)(=O)[O-] (stereo not drawn),-4.09%
